Assay results: article PMC12322260, “Anticancer activity of triterpene glycosides from the sea star Solaster pacificus” (Scientific Reports, 2025)

Experiments:
22Rv1 cells [1] = assay: MTT cytotoxicity assay; assay type: cell-based; conditions: Homo sapiens; 22Rv1, 48 h, mean ± SD
Excerpt: (§1) The cell lines were purchased from ATCC (Manassas, VA, USA) or ECACC (Salisbury, UK). The following cell lines were used: Human prostate cancer cells LNCaP (ATCC; RRID:CVCL_0395), VCaP (ECACC; RRID:CVCL_2235), 22Rv1 (ATCC; RRID:CVCL_1045), PC3 (ATCC; RRID:CVCL_0035), and DU145 (ATCC; RRID:CVCL_0105); human prostate non-cancer cells PNT2 (ATCC; RRID:CVCL_2164) and RWPE-01 (ATCC; RRID:CVCL_3791). Human non-cancer embryonic kidney cells HEK293T (ECACC; RRID:CVCL_0063) and human fibroblast cells MRC-9 (ECACC; RRID:CVCL_2629). The docetaxel-resistant cells PC3-DR were generated by long-term treatment of human prostate cancer PC3 cells with sublethal concentrations of docetaxel as previously described[32] and were provided by Prof. Z. Culig (Innsbruck Medical University, Austria). All cell lines were recently authenticated by a commercial service (Multiplexion GmbH, Heidelberg, Germany) and were cultured as previously described[58],[59]. Cells were kept in culture for a maximum of three months and were routinely examined for bacterial, fungal, and mycoplasma infections.

DU145 cells = assay: MTT cytotoxicity assay; assay type: cell-based; conditions: Homo sapiens, DU-145; DU145, 48 h, mean ± SD
Excerpt: as §1

HEK293T cells = assay: MTT cytotoxicity assay; assay type: cell-based; conditions: Homo sapiens, HEK-293T, 48 h, mean ± SD
Excerpt: as §1

LNCaP cells = assay: MTT cytotoxicity assay; assay type: cell-based; conditions: Homo sapiens, 48 h, mean ± SD
Excerpt: as §1

MRC-9 cells = assay: MTT cytotoxicity assay; assay type: cell-based; conditions: Homo sapiens, MRC9; MRC-9, 48 h, mean ± SD
Excerpt: as §1

PC3 cells = assay: MTT cytotoxicity assay; assay type: cell-based; conditions: Homo sapiens, PC-3; PC3, 48 h, mean ± SD
Excerpt: as §1

PNT2 cells = assay: MTT cytotoxicity assay; assay type: cell-based; conditions: Homo sapiens; PNT2, 48 h, mean ± SD
Excerpt: as §1

RWPE-1 cells = assay: MTT cytotoxicity assay; assay type: cell-based; conditions: Homo sapiens; RWPE-1, 48 h, mean ± SD
Excerpt: as §1

VCaP cells = assay: MTT cytotoxicity assay; assay type: cell-based; conditions: Homo sapiens, 48 h, mean ± SD
Excerpt: as §1

PC3-DR cells [2] = assay: MTT cytotoxicity assay; assay type: cell-based, human; conditions: for IC50: Homo sapiens, PC3-DR, 48 h, mean ± SD
Excerpt: as §1

[3] = tested on: HT-29, RPMI-7951, and MDA-MB-231 cells; design: method as in PMID 33799442; conditions: nontoxic concentrations; cited from earlier work
[4] = molecular target: P-glycoprotein (P-gp) in PC3-DR cells (Homo sapiens, UniProt P08183); assay: P-gp activity, calcein-AM assay; conditions: 30 min, glycosides at non-cytotoxic concentrations, controls TQD 50 nM, Doce 100 nM
UniProt P08183, sequence (P08183 whole entry): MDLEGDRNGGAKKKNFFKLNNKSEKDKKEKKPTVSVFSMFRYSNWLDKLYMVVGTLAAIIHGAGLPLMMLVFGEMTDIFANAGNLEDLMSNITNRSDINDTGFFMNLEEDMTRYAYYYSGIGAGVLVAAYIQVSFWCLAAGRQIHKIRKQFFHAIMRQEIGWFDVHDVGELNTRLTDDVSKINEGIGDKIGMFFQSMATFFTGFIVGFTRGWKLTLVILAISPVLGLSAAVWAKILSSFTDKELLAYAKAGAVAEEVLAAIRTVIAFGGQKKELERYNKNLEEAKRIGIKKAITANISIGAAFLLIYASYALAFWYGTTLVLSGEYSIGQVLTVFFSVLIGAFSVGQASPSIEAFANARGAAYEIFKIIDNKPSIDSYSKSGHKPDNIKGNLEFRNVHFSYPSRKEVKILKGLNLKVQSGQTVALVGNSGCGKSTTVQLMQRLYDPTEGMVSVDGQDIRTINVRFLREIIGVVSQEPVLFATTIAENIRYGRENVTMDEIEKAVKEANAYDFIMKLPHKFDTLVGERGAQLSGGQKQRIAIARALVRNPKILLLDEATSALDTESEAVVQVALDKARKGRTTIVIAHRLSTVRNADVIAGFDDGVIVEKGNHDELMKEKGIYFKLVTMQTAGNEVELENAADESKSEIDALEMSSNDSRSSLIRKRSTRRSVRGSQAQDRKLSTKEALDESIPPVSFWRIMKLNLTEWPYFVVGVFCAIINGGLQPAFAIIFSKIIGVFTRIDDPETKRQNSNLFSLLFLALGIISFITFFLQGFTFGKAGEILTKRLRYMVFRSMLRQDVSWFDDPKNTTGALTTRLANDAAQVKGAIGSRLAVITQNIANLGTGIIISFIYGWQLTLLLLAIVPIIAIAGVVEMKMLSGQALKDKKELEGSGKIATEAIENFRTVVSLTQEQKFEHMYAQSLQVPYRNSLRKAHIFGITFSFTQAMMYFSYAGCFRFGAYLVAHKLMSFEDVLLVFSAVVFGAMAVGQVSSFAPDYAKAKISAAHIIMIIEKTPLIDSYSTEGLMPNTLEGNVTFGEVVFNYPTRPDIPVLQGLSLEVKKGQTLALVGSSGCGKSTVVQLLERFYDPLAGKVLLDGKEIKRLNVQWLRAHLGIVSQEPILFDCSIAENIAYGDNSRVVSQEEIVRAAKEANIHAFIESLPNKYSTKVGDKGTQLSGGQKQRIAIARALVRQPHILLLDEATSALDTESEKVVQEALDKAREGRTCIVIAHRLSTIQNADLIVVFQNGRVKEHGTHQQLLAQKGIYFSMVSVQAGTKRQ
Excerpt: A major contributor to docetaxel resistance is P-glycoprotein (also known as P-gp, MDR1), known to be overexpressed in PC3-DR cells. P-glycoprotein is a molecular efflux pump that actively expels various xenobiotic agents, including docetaxel, from cancer cells. Increased P-gp expression correlates with an increased IC50 for docetaxel, signifying enhanced drug resistance. […] In this assay, the non-fluorescent calcein-AM passively diffuses into cells, where it is hydrolyzed by cellular esterases into fluorescent calcein. Both calcein and its precursor are P-gp substrates and are actively transported out of P-gp-highly expressing cells (e.g. PC3-DR cells), which results in reduced intracellular fluorescence. P-gp inhibitors, such as tariquidar, block P-gp function, leading to calcein accumulation and an increase in fluorescence, which therefore can be used as a reliable indicator of reduced P-gp activity. A similar fluorescence increase is observed in the presence of docetaxel due to its competitive binding to the P-gp transporter alongside calcein[38].
Number of biological replicates n = 3. […] Number of biological replicates n = 3.
The evaluation of the activity of P-glycoprotein (P-gp) was performed using calcein-AM assay as described previously. […] The plates were incubated for 15 min, and the green calcein fluorescence was recorded using an Infinite F200PRO plate reader (TECAN). […]

22Rv1 cells [5] = assay: Drug combination MTT assay, SynergyFinder ZIP analysis; assay type: cell-based, human; conditions: 22Rv1, 48 h
Protocol: (§2) Fig. 5 Effects of CuC1 in combination with taxanes and platinum agents. PC3-DR and 22Rv1 cells were co-treated with cisplatin (Cis), carboplatin (Carbo), docetaxel (Doce), or cabazitaxel (Caba) in combination with CuC1 at the indicated concentrations for 48 h. Cellular viability was evaluated using the MTT assay (number of biological replicates n = 3.) and is represented in the Supplementary Table S2. The cytotoxic effects were further analyzed, and 3D heat maps were constructed using SynergyFinder 3.0 software. The drug effects in combination (synergistic, additive, or antagonistic) were analyzed and visualized using the ZIP algorithm and are indicated by δ-score. δ > 10: Synergistic interactions (dark red area); […]: additive effect; δ < − 10: Antagonistic interactions (dark green area). A ZIP synergy score represents a mean δ overall the concentration range used.
(§3) The effect of combinational treatment with established chemotherapies was evaluated as previously reported^54. In brief, cells were exposed to individual drugs of their combinations for 48 h, and the viability was measured by MTT assay and was then analyzed using SynergyFinder 3.0 software (https://synergyfinder.fimm.fi) and the ZIP score algorithm. Statistical analysis was conducted automatically by the software using its inbuilt algorythms based on the input data type and size.

PC3-DR cells [6] = assay: as above; assay type: cell-based, human; conditions: 48 h
Protocol: as §2, §3

PC3-DR cells [7] = conditions: TQD 50 nM

| SMILES | IC50 (22Rv1 cells [1]) | IC50 (DU145 cells) | IC50 (HEK293T cells) | IC50 (LNCaP cells) | IC50 (MRC-9 cells) | IC50 (PC3 cells) | IC50 (PNT2 cells) | IC50 (RWPE-1 cells) | IC50 (VCaP cells) | IC50 (PC3-DR cells [2]) | colony formation [3] | also measured |
| --- | --- | --- | --- | --- | --- | --- | --- | --- | --- | --- | --- | --- |
| CO[C@@H]1[C@@H](O)[C@H](O[C@@H]2[C@@H](O)[C@H](O[C@H]3[C@H](O)[C@@H](O[C@@H]4OC[C@@H](O)[C@H](O)[C@H]4O)[C@H](O[C@H]4[C@H](O[C@H]5CC[C@]6(C)[C@@H]7CCC89C(=O)O[C@@](C)(/C=C/C=C(C)C)[C@H]8[C@@H](OC(C)=O)C[C@@]9(C)C7=CC[C@H]6C5(C)C)OC[C@@H](O)[C@@H]4O)O[C@@H]3C)O[C@H](CO)[C@H]2O)OC[C@H]1O (stereo partly shown) [CuC2, cucumarioside C2] | 623 ± 35 nM | 2690 ± 190 nM | 1590 ± 100 nM | 2180 ± 190 nM | 799 ± 62 nM | 2210 ± 140 nM | 1270 ± 54 nM | 897 ± 66 nM | 487 ± 42 nM | 6200 ± 1470 nM | strongly suppressed the colony formation |  |
| CC(=O)O[C@@]12CO[C@@H]1C[C@H](O)[C@@]1(C)C(=O)[C@H](O)C3=C(C)[C@@H](OC(=O)[C@H](O)[C@@H](NC(=O)OC(C)(C)C)c4ccccc4)C[C@@](O)([C@@H](OC(=O)c4ccccc4)[C@H]21)C3(C)C [Doce, docetaxel] | 0.604 ± 0.122 nM | 2.2 ± 0.61 nM |  | 5.06 ± 0.58 nM | > 500 nM |  | > 500 nM | 0.423 ± 0.225 nM | 0.225 ± 0.215 nM | 388 ± 49.5 nM |  | reduced sensitivity (resistance) of PC3-DR compared to parental PC3 cells (PC3-DR cells [2]; IC50 PC3-DR vs PC3, 48 h): 35 fold; P-gp activity (calcein-AM efflux) [4]: affected P-gp activity; Response (% of effect) (22Rv1 cells [5]; Doce 0.5 nM alone): 14.55% and 11.17%; Response (% of effect) (22Rv1 cells [5]; Doce 1 nM alone): 20.93% and 17.4913%; Response (% of effect) (22Rv1 cells [5]; Doce 2 nM alone): 33.11% and 25.97%; Response (% of effect) (PC3-DR cells [6]; Doce 100 nM alone): 18.69% and 23.63%; Response (% of effect) (PC3-DR cells [6]; Doce 200 nM alone): 29.98% and 33.41%; Response (% of effect) (PC3-DR cells [6]; Doce 400 nM alone): 46.2% and 54.53%; Response (% of effect) (PC3-DR cells [6]; Doce 800 nM alone): 69.53% and 74.92%; decrease of IC50 on co-treatment with tariquidar (PC3-DR cells [7]): 30 fold |
| CO[C@@H]1[C@@H](O)[C@H](O[C@@H]2[C@@H](O)[C@H](O[C@H]3[C@H](O)[C@@H](O[C@@H]4OC[C@@H](O)[C@H](O)[C@H]4O)[C@H](O[C@H]4[C@H](O[C@H]5CC[C@]6(C)[C@@H]7CCC89C(=O)O[C@@](C)(CCC=C(C)C)[C@H]8[C@@H](OC(C)=O)C[C@@]9(C)C7=CC[C@H]6C5(C)C)OC[C@@H](O)[C@@H]4O)O[C@@H]3C)O[C@H](CO)[C@H]2O)OC[C@H]1O (stereo partly shown) [PaC, pacificusoside C] | 1160 ± 70 nM | 15500 ± 2130 nM | 2850 ± 130 nM | 8240 ± 1070 nM | 2110 ± 270 nM | 5680 ± 320 nM | 3030 ± 240 nM | 4500 ± 230 nM | 1860 ± 120 nM | 13600 ± 4220 nM | strongly suppressed the colony formation |  |

Values joined by “and” are separate entries in the source; they are usually repeats but may differ in a detail not shown here. Identical values can stand only once.
